Source: PubChem BioAssay AID686979 (National Center for Advancing Translational Sciences (NCATS), 2013)
Values joined by “and” are separate entries in the source; they are usually repeats but may differ in a detail not shown here. Identical values can stand only once. Among all 420,000 compounds or so, about 50,000 (12%) were called active. This list was built around the results that the source calls inconclusive (neither active nor inactive); the mix of calls is not that of the screen. Calls follow the shape of the dose curve; as a rule, active = well fitted inhibition curve with a large enough effect; inconclusive = small, poorly fitted or top-dose-only effect; inactive = flat fitted curve, though single readings scatter. Potencies of inconclusive entries are doubtful fits and often do not repeat. More than one record can exist for a structure, and the calls need not agree.

Assay: qHTS for Inhibitors of human tyrosyl-DNA phosphodiesterase 1 (TDP1): qHTS in cells in presence of CPT; also: nearly all actives have a fitted effect of over 55% in size
Conditions: chicken DT40 Tdp1-/-;hTDP1 cells + 20 nM CPT, ATP luminescence, 48 h; activity change, negative = growth inhibition: at 46.2 µM (top of the series) unless noted
Procedure, shortened: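 Chicken DT40 Tdp1-/- cells stably complemented with human TDP1 were seeded at 400 cells/well in medium containing 20 nM camptothecin, exposed to pin-transferred compounds, and grown at 37 °C for at least 48 hr. Viability was read as ATP luminescence.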
% is scaled to controls: 0 for no effect and ±100 for the full control effect; potency is read from the fitted curve at half-maximal effect; tags tell the direction and shape of the fitted curve.

| Compound | Potency | activity change, negative = growth inhibition |
| --- | --- | --- |
| CCOC(=O)C(=CNNc1c(C)csc1C(=O)OC)C(=O)OCC | inconclusive: 20.6 µM [inhibitor, single point] | – |
| CCCCCC[N+](C)(C)CC/C=C1/c2ccccc2Sc2ccc(Cl)cc21 | active: 7.31 µM | – |
| CCc1ccc2c(c1)C(=O)C[C@]1(CCC[C@H](C)C1)O2 | inconclusive: 23.1 µM [inhibitor, single point] | – |
| C=C(C)CSc1nc2sc3c(c2c(=O)n1-c1ccccc1)CCN(C)C3 | inconclusive: 29.1 µM [inhibitor, single point] | – |
| COc1ccc(C(=O)COC(=O)CCN2C(=O)C3C4C=CC(C5CC45)C3C2=O)cc1 (stereo not given) | inconclusive: 29.1 µM [inhibitor, single point] | – |
| CC(=O)N1CCCc2ccc(NS(=O)(=O)c3ccc(C)c(C)c3)cc21 | active: 11.6 µM | – |
| CC1(C(=O)NCc2ccccc2)CN(S(C)(=O)=O)CC(=O)N1CCc1ccccc1 (stereo not given) | inconclusive: 0.517 µM [inhibitor, single point] | – |
| CCC(=O)N1CCc2cc(Br)cc(S(=O)(=O)N3CCCC(C(=O)NCc4cccc(OC)c4)C3)c21 (stereo not given) | inconclusive: 18.4 µM [inhibitor, single point] | – |
| O=C1CCc2cc(S(=O)(=O)NCc3ccc(F)cc3)cc3c2N1CC3 | inactive and inconclusive: 29.1 µM [inhibitor, single point] | – |
| Cc1ccc(Cc2nc3ccccc3nc2SCC(=O)N2CCN(c3ccccc3F)CC2)cc1 | inconclusive: 29.1 µM [inhibitor, single point] | – |
| CC1CN(C2CCN(C(=O)c3ccccc3)CC2)CC(C)O1 (stereo not given) | – | inactive: -10.6% |
| CSc1ccccc1NC(=S)N/N=C/c1cccn1Cc1ccc(F)cc1 | inconclusive: 29.1 µM [inhibitor, single point] | – |
| COc1ccc(C(=O)COC(=O)c2cc(-c3ccccc3)nc3c(C)cccc23)cc1 | inconclusive: 18.4 µM [inhibitor, single point] | – |
| CCCCCn1c(NCc2ccccc2OC)nc2ccccc21 | inconclusive: 23.1 µM [inhibitor, single point] | – |
| C(=N\c1nc2ccccc2n1Cc1ccccc1)/c1cccs1 | inconclusive: 18.4 µM [inhibitor, partial curve] | – |
| CCc1cc2c(cc3c(=O)n(CC(=O)N4CCC(C)CC4)nc(CC)n32)s1 | active: 16.4 µM | – |
| CC(C)CCn1c2ccccc2c2cc(CC(N)=O)ccc21 | inconclusive: 23.1 µM [inhibitor, single point] | – |
| COc1cccc(C=NNC(=S)NN=Cc2cccc(OC)c2OC)c1OC | active: 4.61 µM | – |
| Cn1nc(C(=O)N2CCN(c3cccc(Cl)c3)CC2)c2c1-c1ccccc1S(=O)(=O)C2 | active: 18.4 µM | – |
| Cn1c(=O)c2c(nc(NCc3ccc4c(c3)OCO4)n2C)n(C)c1=O | – | inconclusive: -32.8% [inhibitor] |
| CCN(CC(=O)Nc1ccc(Br)cc1)CC(=O)Nc1cc(C)on1 | inconclusive: 0.731 µM [inhibitor, full curve, poor fit] | – |
| CC1(C)Oc2ccc3ccc(=O)oc3c2/C(=C/Nc2ccccn2)C1=O | inconclusive: 29.1 µM [inhibitor, single point] | – |
| CCc1nc(SCC(=O)c2ccccc2)c2c(=O)n(C)c(=O)n(C)c2n1 | inconclusive: 29.1 µM [inhibitor, single point] | – |
| Cn1c(=O)c(N)c2c3c(c(Br)ccc31)C(=O)c1ccccc1-2 | inconclusive: 20.6 µM [inhibitor, single point] | – |

| Compound | Potency | activity change, negative = growth inhibition |
| --- | --- | --- |
| COCc1ccc(C(=O)N2CCCC(N(C)Cc3ccccc3)C2)s1 (stereo not given) | inconclusive: 29.1 µM [inhibitor, single point] | – |
| C=CCNc1nc(-c2cc3ccccc3o2)cs1 | – | inactive: -19.5% |
| Cc1ccc2nc(SCC(=O)c3ccc(O)cc3O)[nH]c2c1 | – | inactive: -16% |
| CSc1nc(N)nc2c1ncn2CC(=O)NCC(c1ccccc1)c1ccccc1 | active: 14.6 µM | – |
| COc1ccc([C@H]2CC(=O)C=C(c3ccc(Cl)c(Cl)c3)C2)cc1 | – | inactive: -24.5% |
| O=C(Nc1ccccc1)Nc1nncs1 | inconclusive: 18.4 µM [inhibitor, single point] | – |
| CCS(=O)(=O)c1nc2ccccc2n1Cc1ccccc1Cl | inconclusive: 20.6 µM [inhibitor, single point] | – |
| CCS(=O)(=O)N1CCc2cc(C(=O)Nc3ccc(C)c(Cl)c3)ccc21 | active: 18.4 µM | – |
| CCn1c(SCC(=O)Nc2ccccc2N2CCOCC2)nnc1-c1ccccc1O | inconclusive: 16.4 µM [inhibitor, single point] | – |
| CCCCOc1ccc(C(=O)NCC2(N3CCN(C)CC3)CCCCC2)cc1 | inconclusive: 18.4 µM [inhibitor, single point] | – |
| Cc1ccccc1C(=O)N1CCN(c2ccc(NC(=O)c3ccc4c(c3)OCO4)cc2)CC1 | active: 13 µM | – |
| Cc1ccc(NC(=S)NCc2ccccc2)cc1[N+](=O)[O-] | inconclusive: 20.6 µM [inhibitor, single point] | – |
| Cc1ccc(OC(C)C(=O)Nc2ccccc2C(=O)NCc2cccnc2)cc1C (stereo not given) | inconclusive: 7.31 µM [inhibitor, partial curve] | – |
| CC(Oc1ccc(F)cc1)C(=O)NN (stereo not given) | – | inactive: -27.2% |
| COc1ccc(C(=O)Cn2cnc3ccccc3c2=O)cc1OC | – | inactive: -15.9% |
| O=C(N/N=C/c1ccccn1)c1ccccc1 | inconclusive: 29.1 µM [inhibitor, single point] | – |
| Cc1cc(=O)oc2cc(OCC(=O)Nc3ccc4[nH]c(=O)[nH]c4c3)ccc12 | – | inactive: -27.4% |
| CC(C)C(NS(=O)(=O)c1cccs1)C(=O)NCc1ccccc1 (stereo not given) | – | inactive: -0.831% |
| CCc1ccc(-n2c(=O)c3ccc(C(=O)NCCc4ccccc4)cc3n(CC(N)=O)c2=O)cc1 | inconclusive: 13 µM [inhibitor, partial curve] and inconclusive: 10.3 µM [inhibitor, partial curve] | – |
| CCOC(=O)C1CCN(C2CCN(C(=O)c3oc4c(F)cccc4c3C)CC2)CC1 | inconclusive: 29.1 µM [inhibitor, single point] | – |
| CCOc1cccc2sc(N(CCN(CC)CC)C(=O)c3ccc(S(=O)(=O)N4CCCC4)cc3)nc12 | inconclusive: 23.1 µM [inhibitor, single point] | – |
| Cc1ccc2c(c1)C(c1ccccc1)N(C(=O)c1ccc(OC(C)C)cc1)CC(=O)N2 (stereo not given) | inconclusive: 29.1 µM [inhibitor, single point] | – |
| Cc1cccc(CCNC(=O)Cn2ncc3c(=O)oc4ccccc4c32)c1 | inconclusive: 9.2 µM [inhibitor, partial curve] | – |
| Cc1nc(SC2CC(=O)N(c3ccccc3)C2=O)nc2c1CCCC2 (stereo not given) | inconclusive: 35.5 µM [inhibitor, single point] | – |

| Compound | Potency | activity change, negative = growth inhibition |
| --- | --- | --- |
| Fc1ccc(-c2nnc3ccc(N4CCc5ccccc5C4)nn23)cc1 | active: 9.2 µM | – |
| CCOC(=O)C1CCN(c2nc(-c3ccc(Br)cc3)nc3ccccc23)CC1 | active: 5.8 µM | – |
| COc1ccc(C(CNC(=O)C2CC(=O)N(Cc3ccccc3)C2)N2CCOCC2)cc1 (stereo not given) | – | inactive: 9.58% |
| COC(=O)C(N)Cc1ccc(O)c(O)c1 (stereo not given) | – | inactive: -15.9% |
| O=C(CSc1nnc(-c2ccccc2O)o1)N1CCc2ccccc2C1 | inconclusive: 12.6 µM [inhibitor, partial curve, poor fit] | – |
| O=C(Nc1ccccc1)c1nn(-c2ccccc2)c(=O)cc1C(F)(F)F | inconclusive: 23.1 µM [inhibitor, single point] | – |
| O=C(c1ccccc1)N(CCCl)C(=O)N(CCCl)C(=O)c1ccccc1 | inconclusive: 23.1 µM [inhibitor, single point] | – |
| Cc1c(Cl)cccc1NC(=O)CCC(=O)NNC(=O)c1ccco1 | – | inconclusive: 6.18% [inhibitor] |
| C=CCNC(=S)NN=C1CCC(c2ccccc2)CC1 (stereo not given) | – | inactive: -9.24% |
| COc1cc(SC)ccc1C(=O)Nc1ncc(Cl)cc1Cl | – | inactive: -2.19% |
| CSCC(=O)N1CCCC(C(=O)c2cc(F)ccc2F)C1 (stereo not given) | – | inactive: -5% |
| COC(=O)c1ccc(N2CCN(S(=O)(=O)c3c(C)cc(C)cc3C)CC2)c([N+](=O)[O-])c1 | – | inactive: -6.48% |
| C=CCn1c(SCC(=O)c2[nH]c(C)c(C(=O)OCC)c2C)nc2scc(-c3ccccc3)c2c1=O | active: 11.6 µM | – |
| Cc1cc(C)c(N=C2C(=O)Nc3ccccc32)c(C)c1 | – | inactive: -13.8% |
| CCOc1ccc(CN(C)Cc2cc(=O)oc3c(C)c(C)ccc23)cc1OC | active: 10.3 µM | – |
| CC(=O)C1=C(C)Nc2ncnn2C1c1cccc(O)c1 (stereo not given) | inconclusive: 29.1 µM [inhibitor, single point] | – |
| Cc1ccc(C)c(N2CCN(C(=O)CCCn3ncn4c(cc5occc54)c3=O)CC2)c1 | inconclusive: 18.4 µM [inhibitor, single point] and inconclusive: 25.9 µM [inhibitor, single point] | – |
| COc1ccc(C(=O)Nc2ccc(-c3cc4ccccc4oc3=O)c(C)c2)cc1Br | inconclusive: 16.4 µM [inhibitor, partial curve] | – |
| O=c1c(-c2cc(O)c(O)c(O)c2)coc2cc(O)c(O)c(O)c12 | inconclusive: 29.1 µM [inhibitor, single point] | – |
| COc1ccc(-c2csc(NC(=O)CSCC(=O)Nc3cc(C)on3)n2)cc1 | inconclusive: 29.1 µM [inhibitor, single point] | – |
| COc1cc(CNc2ncnc3c2ncn3[C@H]2CN(Cc3ccc(F)cc3)C[C@@H](CO)O2)cc(OC)c1OC | active: 20.6 µM | – |
| CCN(CCCNC(=O)c1nn(-c2ccc(C)cc2)c(=O)c2c1c1ccccc1n2C)c1ccccc1 | inconclusive: 1.03 µM [inhibitor, partial curve] | – |
